Laboratory results reported in the supplement of paper PMC10369915.
Some of the results follow. No stated cut-off is given here; in the data, active = 3.2 or more and inactive = the rest. Most of these values are background signal.

B1: TSSK2_Y23 (peptide)
chain: LGKGSYAKVKS
B2: TSPAN12_Y138_YF (peptide)
chain: ARMTNYGLPRF
B3: TTN_Y19087_R19091K (peptide)
chain: IKETHYMVDKC
B4: TSHR_Y706_A703G (peptide)
chain: RQGQAYRGQRV
B5: TTLL5_Y542_E543K (peptide)
chain: LHAALYKRKLL
B6: TTN_Y20078 (peptide)
chain: VRSTEYPCAGL
B7: TTN_Y19087 (peptide)
chain: IKETHYMVDRC
B8: TTN_Y31721_V31725I_YF (peptide)
chain: TENAGYFFRIS
B9: TSPAN7_Y131 (peptide)
chain: DAMQTYNGNDE
B10: TSPAN12_Y138_Y138C (peptide)
chain: ARMTNCGLPRY
B11: TTN_Y22256 (peptide)
chain: TDGIAYEFRVI
B12: TTN_Y25928 (peptide)
chain: ACDALYPPGPP
B13: TTF1_Y357 (peptide)
chain: SLESAYPEGSQ
B14: TTN_Y22641 (peptide)
chain: LTDLRYKVSGL
B15: TTN_Y25826 (peptide)
chain: TACNPYKPPGP
B16: TTN_Y20412 (peptide)
chain: IAKNPYDPPGR
B17: TTLL10_Y446_S448N (peptide)
chain: EHLNRYINDTF
B18: TTN_Y22641_L22646P (peptide)
chain: LTDLRYKVSGP

These binders were tested against SHP2 C-SH2 domain E139D (assay: enrichment score (SH2-bound / input frequency) (ratio); bacterial display of known human phosphotyrosine sites (pTyr-Var adds point mutants) read by sequencing; higher = stronger binding; tyrosines were phosphorylated by kinases first). Conditions: peptide library: pTyr-Var.
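Further: displayed peptides selected on beads carrying the immobilized SH2 domain, with library peptides lacking any tyrosine serving as negative controls.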

Enrichment score, inactive:
B1 0.935
B2 0.858
B3 0.928
B4 0.252
B5 0.516
B6 0.77
B7 0.777
B8 0.563
B9 0.375
B10 0.928
B11 0.797
B12 0.701
B13 0.486
B14 0.661
B15 0.78
B16 0.955
B17 1.32
B18 0.403

The binders below were run against SHP2 C-SH2 domain wild-type in the same assay as above. Conditions: peptide library: pTyr-Var.

Enrichment score, inactive:
B1 0.856
B2 0.837
B3 0.725
B4 0.207
B5 0.526
B6 0.66
B7 0.919
B8 0.641
B9 0.393
B10 0.79
B11 0.899
B12 0.716
B13 0.499
B14 0.504
B15 0.807
B16 0.823
B17 1.15
B18 0.421

These binders were tested against SHP2 N-SH2 domain L43F in the same assay as above. Conditions: peptide library: pTyr-Var.

Enrichment score, inactive:
B1 0.715
B2 0.707
B3 0.82
B4 0.256
B5 0.434
B6 0.687
B7 0.849
B8 0.656
B9 0.377
B10 0.93
B11 0.859
B12 1.01
B13 0.549
B14 0.472
B15 0.728
B16 0.573
B17 1.34
B18 0.626

What follows are binders tested against SHP2 N-SH2 domain T42A in the same assay as above. Conditions: peptide library: pTyr-Var.

Enrichment score, inactive:
B1 0.679
B2 0.701
B3 0.698
B4 0.289
B5 0.379
B6 0.559
B7 0.805
B8 0.527
B9 0.452
B10 0.698
B11 0.602
B12 0.523
B13 0.492
B14 0.567
B15 0.533
B16 0.618
B17 1.15
B18 0.478

What follows are binders tested against SHP2 N-SH2 domain T52S in the same assay as above. Conditions: peptide library: pTyr-Var.

Enrichment score, inactive:
B1 0.704
B2 0.681
B3 0.623
B4 0.37
B5 0.831
B6 0.668
B7 0.8
B8 0.537
B9 0.509
B10 0.879
B11 0.739
B12 0.612
B13 0.515
B14 0.611
B15 0.878
B16 0.754
B17 1.18
B18 0.569

These binders were tested against SHP2 N-SH2 domain wild-type in the same assay as above. Conditions: peptide library: pTyr-Var.

Enrichment score, inactive:
B1 0.626
B2 0.628
B3 0.912
B4 0.491
B5 0.578
B6 0.725
B7 0.872
B8 0.753
B9 0.505
B10 0.888
B11 0.893
B12 0.772
B13 0.534
B14 0.635
B15 0.626
B16 0.927
B17 1.51
B18 0.401
